Measurements reported in patent publication US12331094B2 (Bayer Aktiengesellschaft, priority 2018, dated 2025).
Each block holds one molecule with its values, some of them ahead of it.

Target: T1, human NPRA (hNPRA) (Homo sapiens, UniProt P16066)
T1 construct: expressed in transfected cells
T1 sequence (P16066 33-1061): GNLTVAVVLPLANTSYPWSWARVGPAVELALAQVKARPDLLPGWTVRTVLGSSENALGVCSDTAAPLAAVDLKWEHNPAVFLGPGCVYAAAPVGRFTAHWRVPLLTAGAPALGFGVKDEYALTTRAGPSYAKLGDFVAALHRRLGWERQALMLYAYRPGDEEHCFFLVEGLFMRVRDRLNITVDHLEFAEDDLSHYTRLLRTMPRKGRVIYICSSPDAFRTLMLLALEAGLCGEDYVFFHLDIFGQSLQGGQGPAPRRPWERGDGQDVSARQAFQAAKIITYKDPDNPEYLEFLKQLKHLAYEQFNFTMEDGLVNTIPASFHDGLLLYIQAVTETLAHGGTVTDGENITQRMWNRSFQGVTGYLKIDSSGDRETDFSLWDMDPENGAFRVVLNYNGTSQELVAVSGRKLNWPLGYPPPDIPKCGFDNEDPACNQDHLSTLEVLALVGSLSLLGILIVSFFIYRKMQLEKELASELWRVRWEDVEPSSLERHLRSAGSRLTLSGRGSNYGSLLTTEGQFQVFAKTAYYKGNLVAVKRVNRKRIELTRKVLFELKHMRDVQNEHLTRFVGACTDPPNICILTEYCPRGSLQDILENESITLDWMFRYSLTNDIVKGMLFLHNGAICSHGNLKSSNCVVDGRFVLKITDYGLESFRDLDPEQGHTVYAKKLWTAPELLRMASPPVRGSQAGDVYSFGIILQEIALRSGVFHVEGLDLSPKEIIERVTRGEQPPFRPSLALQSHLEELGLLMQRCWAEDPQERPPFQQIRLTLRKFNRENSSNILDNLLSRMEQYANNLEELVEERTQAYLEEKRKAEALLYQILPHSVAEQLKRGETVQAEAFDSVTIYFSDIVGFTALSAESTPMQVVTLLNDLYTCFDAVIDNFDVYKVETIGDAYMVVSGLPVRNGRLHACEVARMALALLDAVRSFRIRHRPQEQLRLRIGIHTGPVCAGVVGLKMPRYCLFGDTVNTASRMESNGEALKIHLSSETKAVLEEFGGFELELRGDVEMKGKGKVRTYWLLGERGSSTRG
Assay: cGMP quantification (HTRF) on stable hNPRA-CHO k1 cells (res, ics, pcs samples)
Format: cell-based
Conditions: for activity on hNPRA cells / qualit. activity on hNPRA: BNP engrafted constructs; for qualit. activity on hNPRA: purified compound samples
Experimental: All activities shown in Tables 7 and 8 were measured on cells with heterologous over expression of human NPRA (hNPRA) by use of a cGMP quantification assay conducted according to manufacturer's instructions (cisbio; 62GM2PEH). In brief, the assay quantifies cGMP in buffered solution or cell-culture supernatants based on the competition between cGMP produced by the cell as result of the NPRA stimulation through the (natriuretic peptide) sample and d2 labelled cGMP for binding to a Cryptate labelled antibody. Sample cGMP and d2 labeled cGMP compete for binding to a limited number of sites on Cryptate labeled anti-cGMP antibodies, and consequently, HTRF® specific fluorescent signal (i.e. energy transfer) is inversely proportional to the concentration of cGMP in the sample.
Dose-response curve data were analyzed with GraphPad Prism (version 7.00 for Windows, GraphPad Software, La Jolla California USA) and EC50 were fitted according to Y=Bottom+(Top−Bottom)/(1+10^((Log EC50−X)*HillSlope)) applying constraints for bottom, top and slope (shared value for all data sets of the respective experiment).
The raw compound sample activity on stable hNPRA-CHO k1 cells was first assessed by comparison to the negative control TPP-5657 and to a positive sample, in particular TPP-5661. Controls and res were tested in quadruplets in two concentrations with a relative dilution factor of 5 aiming for a fluorescent signal (s) in the dynamic range of the assay. […] Values listed in Table 7, columns “activity res” and “stdev activity res”, represent the average of the results for the two concentrations and the respective standard deviation. Res signals less than half of the signal of the reference compound TPP-5661 (36%) were assessed as not active (n.a.).
The activity of several raw compound samples on stable hNPRA-CHO k1 cells was reassessed by comparison to reference sample TPP-5661 in 2.5-fold dilution series (8 concentrations) starting with a 5-fold dilution. The “log EC50” fit value as activity measure of the res was set in relation to the corresponding value of the reference res TPP-5661 by calculating the delta “log EC50” _compound−“log EC50” _TPP-5661; resulting values are listed in Table 7, column “rel. activity res”. […] All samples were applied in quadruplets.
The activity of isolated compound samples on stable hNPRA-CHO k1 cells was assessed by EC50 determination and comparison to reference sample TPP-5661. Samples were tested in 2.5-fold dilution series from 80 nM to 0.13 nM. The log EC50 fit value as activity measure of the ics was set in relation to the corresponding value of the reference ics TPP-5661 (−8.8) by calculating the delta log EC50_compound−log EC50_TPP-5661; resulting values are listed in Table 7, column “rel. log EC50 ics”. All samples were applied in quadruplets.
The activity of purified compound samples on stable hNPRA-CHO k1 cells was assessed in multiple experiments by EC50 determination and comparison to reference sample TPP-5661. Samples were tested in dilution series at least in quadruplets. […] The log EC50 fit value as activity measure of the pcs was set in relation to the corresponding value of the reference TPP-5661 in the respective experiment (in average −9.2, standard deviation 0.5) by calculating the delta log EC50_compound−log EC50_TPP-5661.
Compounds showing an activity in res without confirmation as ics or pcs are marked with an unified “y”, and compounds assessed as not active (“n.a.” in column “activity res”) probably due to their very low expression level (≤1 μg/ml, “n.e.” in column “μg/ml res”) are marked accordingly.

[1] = ANP engrafted constructs, summarized assessment relative to TPP-5661 (excerpt of Table 7)
[2] = summarized qualitative assessment over res, ics, pcs (CHO and HEK293) data

B2: 4: ANP engrafted antibody, CDRH1 (antibody)
heavy: EVQLLESGGGLVQPGGSLRLSCAASGFTFGSGSGSGGSGGSLRRSSCFGGRMDRIGAQSGLGCNSFRYGGSGGSGSGSGMSWVRQAPGKGLEWVSAISGSGGSTYYADSVKGRFTISRDNSKNTLYLQMNSLRAEDTAVYYCAKLTGAEYFQHWGQGTLVTVSS[here human IgG1 constant region without letters]
light: QSVLTQPPSVSGAPGQRVTISCTGSSSNIGAGYDVHWYQQLPGTAPKLLIYGNSNRPSGVPDRFSGSKSGTSASLAITGLQAEDEADYYCQSYDSSLSGVVFGGGTKLTVLGQPKAAPSVTLFPPSSEELQANKATLVCLISDFYPGAVTVAWKADSSPVKAGVETTTPSKQSNNKYAASSYLSLTPEQWKSHRSYSCQVTHEGSTVEKTVAPTECS
qualit. activity [1]: ++ (relative log EC50<0.7 were assessed as very active)
qualit. activity [2]: ++ (relative log EC50<0.7 were assessed as very active)

B5: Compound 9: ANP engrafted antibody, CDRH1 (antibody)
heavy: EVQLLESGGGLVQPGGSLRLSCAASGFTFGSGSGSGSGSGSPDGGSGGSLRRSSCFGGRMDRIGAQSGLGCNSFRYGSYGSGSGSGSGSGMSWVRQAPGKGLEWVSAISGSGGSTYYADSVKGRFTISRDNSKNTLYLQMNSLRAEDTAVYYCAKLTGAEYFQHWGQGTLVTVSS[here human IgG1 constant region without letters]
light: B2 light
qualit. activity [1]: ++ (relative log EC50<0.7 were assessed as very active)
qualit. activity [2]: ++ (relative log EC50<0.7 were assessed as very active)
qualit. activity of corresp. ANP cpd. (value of the ANP engrafted construct with same integration locus and N-/C-terminal sequence (named in Table 5)): ++ (relative log EC50<0.7 were assessed as very active)

Now from value to molecule, other results behind:

activity after compound preparation (pcs) (purified compound samples (pcs)): shown
activity as res (raw compound samples (res), stable hNPRA-CHO k1 cells): no activity
B1: 61: ANP engrafted antibody, CDRH2 (antibody)
heavy: EVQLLESGGGLVQPGGSLRLSCAASGFTFSSYAMSWVRQAPGKGLEWVSAISGTSASLAITGPDGGSGGSLRRSSCFGGRMDRIGAQSGLGCNSFRYGSDRFSGSKSGGSTYYADSVKGRFTISRDNSKNTLYLQMNSLRAEDTAVYYCAKLTGAEYFQHWGQGTLVTVSS[here human IgG1 constant region without letters]
light: B2 light
qualit. activity [1]: ++ (relative log EC50<0.7 were assessed as very active)
qualit. activity [2]: ++ (relative log EC50<0.7 were assessed as very active)

activity on hNPRA cells: significant activity
B3: B5: BNP (Hum28aa) engrafted antibody, CDRH2 (antibody)
heavy: EVQLLESGGGLVQPGGSLRLSCAASGFTFSSYAMSWVRQAPGKGLEWVSAISGSVVVTSHQAPGGGSGGMVQGSGCFGRKMDRISSSSGLGCKVLRRGEKKKLKSLAYGSTYYADSVKGRFTISRDNSKNTLYLQMNSLRAEDTAVYYCAKLTGAEYFQHWGQGTLVTVSS[here human IgG1 constant region without letters]
light: B2 light
qualit. activity on hNPRA (stable hNPRA-CHO k1 cells): ++ (relative log EC50<0.7 were assessed as very active)

activity on hNPRA cells: significant activity
B4: B1: BNP (Hum28aa) engrafted antibody, CDRH3 (antibody)
heavy: EVQLLESGGGLVQPGGSLRLSCAASGFTFSSYAMSWVRQAPGKGLEWVSAISGSGGSTYYADSVKGRFTISRDNSKNTLYLQMNSLRAEDTAVYYCTSVHQETKKYQSSPDGGSGGMVQGSGCFGRKMDRISSSSGLGCKVLRRGSYSYTYNYEWHVDVWGQGTLVTVSS[here human IgG1 constant region without letters]
light: B2 light
qualit. activity on hNPRA (stable hNPRA-CHO k1 cells): ++ (relative log EC50<0.7 were assessed as very active)
